The other results are listed elsewhere or left out.
System: T1, C. trachomatis L2/434/Bu expressing GFP (CTL2-GFP)
T1 construct: L2/434/Bu GFP intracellular growth in HeLa cells
Set-up: species or system HeLa; C. trachomatis total inclusion area by high-content imaging, normalised to DMSO
Details: total inclusion area; 28.5 h, 10 µM; inhibitor
Summary of the method: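 Bulk GFP and resorufin signals were read first. Wells were then fixed, stained with Hoechst and imaged to detect GFP inclusions and host nuclei. MICs followed the previously described calculation.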

| Compound | % of control remaining |
| --- | --- |
| CCCC(=O)c1ccc(S(=O)(=O)N2CCCN(Cc3c(-c4ccccc4)nc4sccn34)CC2)cc1 [CBK062912] | 79.4692 |
| COc1ccc(F)c(CN(CC2CCNCC2)C(=O)Nc2ccccc2C(F)(F)F)c1 [CBK049805] | 113.289 |
| COc1ccccc1NC(=O)CN1CCN(CCC(=O)c2ccc(C(C)C)cc2)CC1 [CBK023925C] | 73.1147 |
| CCOC(=O)c1sc2cccc(F)c2c1COC(=O)c1ccc(CNC(N)=O)cc1 [CBK297873] | 105.147 |
| CCOC(=O)C1=C(C)N(c2ccc(C(=O)O)cc2)C(=O)NC1c1ccc(OC(F)F)c(OC)c1 (stereo not drawn) [CBK297878] | 58.9918 |
| CCN1C(=O)C2(CC(=O)N(CCc3cccc(OC)c3)C2=O)c2cc(C)ccc21 (stereo not drawn) [CBK075195] | 87.1866 |
| O=C(CS(=O)(=O)c1cc2c(N3CCNCC3)nccc2s1)c1ccc(N2CCCC2)cc1 [CBK042232C] | 96.1401 |
| CC(=O)N1C[C@@H]2CCCCN(CCOc3ccccc3)[C@@H]2C1 [CBK285494] | 80.4302 |
| COCCN(Cc1ccncc1)C(=O)c1cc(C(C)C)n2ncnc2n1 [CBK306983] | 42.3617 |
| CC(=O)N1CCC(C(=O)NC(=O)NCc2ccc(F)cc2)CC1 [CBK034834] | 107.153 |
| CCc1cc2c(=O)c(-c3nc(C)cs3)c(CCC(=O)O)oc2cc1O [CBK264838] | 104.031 |
| CC1CCc2c(sc3ncnc(OCC(=O)N(C)CCC#N)c23)C1 (stereo not drawn) [CBK304976] | 73.1737 |
| C=CCSc1nnc(-c2ccccc2NC(=O)CC)c(O)n1 [CBK266411] | 101.45 |
| Cn1c(/N=C(\C=N\c2cc(=O)n(C)c(=O)n2C)c2ccccc2)cc(=O)n(C)c1=O [CBK303237] | 79.4271 |
| CCc1csc(C(=Cc2ccc(OC)cc2)C(N)=O)n1 [CBK001010] | 98.4453 |
| Brc1ccccc1OCCc1ccccc1 [CBK004519] | 65.4275 |
| CCCCC(=O)N1CC(n2nc(-c3ccccc3)ccc2=O)C1 [CBK284615] | 137.119 |
| CCN1CCC2(C/C=C/CNC(=O)c3ccccc3OCCN(C)C2=O)CC1 [CBK292061] | 87.7409 |
| O=C(O)CC1CCN(c2ccc(C(F)(F)F)cn2)CC1 [CBK286850] | 86.3232 |
| CCc1ccc(-c2csc(NC(=O)CN3C(=O)CCC3=O)n2)cc1 [CBK287347] | 120.55 |
| CC(=O)Nc1ccc(CN2C[C@@H]3OCC(=O)N(C)[C@@H]3C2)cc1 [CBK289240] | 109.447 |
| O=C(NCCc1ccccc1)c1ncoc1-c1cccs1 [CBK283662] | 56.8871 |
| CC(C)(C)NS(=O)(=O)c1cccc2nonc12 [CBK265569] | 107.136 |
| CC(=O)Nc1ccc(S(=O)(=O)N2CCN(Cc3ccc([N+](=O)[O-])cc3)CC2)cc1 [CBK264231G] | 111.81 |
| COc1ccc(C2C(C(=O)c3ccc(Cl)cc3)=C(O)C(=O)N2CCN(C)C)cc1OC (stereo not drawn) [CBK264660] | 116.08 |
| COc1ccccc1CN(C)C(=O)CCc1ccc(S(N)(=O)=O)cc1 [CBK304585] | 64.0577 |

| Compound | % of control remaining |
| --- | --- |
| Clc1ccccc1-c1cn2ccnc2c(NCc2cccnc2)n1 [CBK038039] | 93.7046 |
| COc1ccc(S(=O)(=O)Nc2ccc(C)cc2)cc1C(=O)Nc1ccc(C)cc1 [CBK265172] | 96.3668 |
| CS(=O)(=O)Nc1cccc(C2=NN(S(=O)(=O)c3ccc(Cl)cc3)C(c3ccccc3F)C2)c1 (stereo not drawn) [CBK268762] | 85.3538 |
| COc1ccc(/C=C/C(C)=C\C(=O)O)c(OC)c1 [CBK262237N] | 80.091 |
| COc1ccc(C(C)C)cc1S(=O)(=O)NCCc1c(C)[nH]c2c(Cl)cccc12 [CBK266983] | 83.9316 |
| COc1ccc(CCNCC2OCCCc3cc(OC)c(OC)cc32)cc1OC (stereo not drawn) [CBK012466C] | 74.533 |
| O=C1NC2(CCC(=O)N(Cc3ccccc3)CC2)Nc2ccccc21 (stereo not drawn) [CBK284439] | 54.5992 |
| CC1CCC(C(N)=O)CN1C(=O)c1csc(COc2ccc(Cl)cc2)n1 (stereo not drawn) [CBK304948] | 50.4055 |
| CCCC/C=C/c1cnc2[nH]c(=O)n([C@H](C)c3ccccc3)c2n1 [CBK064182] | 108.041 |
| COc1ccc(C(=O)NNS(=O)(=O)N(C)C)cc1OC [CBK267697] | 115.722 |
| O=C(NNC(=S)NCC1CCCO1)c1cccnc1 (stereo not drawn) [CBK266842] | 101.741 |
| O=C1CC(N(O)c2ccccc2)C(=O)N1c1ccc(F)cc1 (stereo not drawn) [CBK288419] | 89.8846 |
| COc1ccc(N(C)C(=O)c2ccc(Cn3nc(NC(=O)Cc4ccc5c(c4)OCO5)c4ccccc43)cc2)cc1 [CBK059530] | 108.675 |
| CCOc1ccc(Cc2nnnn2CC(=O)O)cc1 [CBK286677] | 108.958 |
| O=C(O)CCC(=O)NNc1ccccc1[N+](=O)[O-] [CBK261546] | 102.465 |
| CCOCCn1c(CN2CCOCC2)nc2c1c(=O)n(C)c(=O)n2C [CBK306062] | 60.3486 |
| CCc1nc2c(OCC(=O)c3ccc(Cl)cc3Cl)cccn2c1N(C)C(=O)C1CC1 [CBK147712] | 97.1406 |
| O=C(CN1C(=O)COc2ccc(Cl)cc21)Nc1cccc(C(=O)O)c1 [CBK269667] | 90.4585 |
| O=c1c2sccc2nc2n1CCN(Cc1ccc(F)c(F)c1)CC2 [CBK282295] | 92.008 |
| CN1CCN(Cc2c(O)ccc3c(=O)c(-c4ccc(Cl)cc4)coc23)CC1 [CBK263314] | 92.1121 |
| Cn1c(=O)c2c(nc(N3CCOCC3)n2CC/N=C2/CCCCCN2)n(C)c1=O [CBK267708C] | 106.148 |
| CC(=O)N1CCN(CCCC(c2ccc(F)cc2)c2ccc(F)cc2)CC1 [CBK024944C] | 6.561 |
| CCN(CC)CCNC(=O)c1ccc(Nc2cncc(-c3ccc(O)cc3)n2)c(OC)c1 [CBK122659] | 32.943 |
| Cc1cc(Cl)ccc1CNC(=O)c1ccc2[nH]ccc2c1 [CBK149048] | 96.5349 |
| CS(=O)(=O)N(CC(=O)NCc1ccccn1)Cc1ccc(Cl)cc1 [CBK267982] | 96.0616 |
| C/C(=N\OCC(=O)N(Cc1ccccc1)c1ccccc1C(=O)O)c1cccs1 [CBK077414] | 91.1227 |

| Compound | % of control remaining |
| --- | --- |
| CN1[C@@H](CCC(=O)NCc2ccc(F)cc2)CNC(=O)[C@@H]2[C@H]1CCN2C1CCOCC1 [CBK289023] | 101.601 |
| CCCN(CCC)C(=O)c1ccc(NC(=O)CC)cc1 [CBK304391] | 13.6617 |
| N#Cc1c(Nc2cccc(F)c2)sc2c(O)cc(=O)[nH]c12 [CBK270250] | 104.815 |
| Cc1ccc(C)c2c(C)c(C(=O)NCC[S+](C)[O-])[nH]c12 (stereo not drawn) [CBK282484] | 123.993 |
| O=C(NCc1ccccc1F)c1cccc(CN2C(=O)CSC2=O)c1 [CBK296730] | 90.5441 |
| COc1cc(Nc2cccc3c2C(=O)c2ccccc2C3=O)c(OC)cc1C=O [CBK262677] | 106.232 |
| Cn1nccc1C(=O)NC1CCN(CC2(c3ccccc3)CC2)CC1 [CBK285373] | 89.8412 |
| CNCC1CCCN1S(=O)(=O)c1ccc(OCc2ncnn2C)cc1 (stereo not drawn) [CBK304500] | 59.6494 |
| Cc1cccnc1C(c1ccccc1)N(C)C(=O)C1CCN(C(=O)NCc2ccccc2)CC1 (stereo not drawn) [CBK074119] | 88.7208 |
| CCNC(=O)Nc1nn(Cc2ccc(OC)cc2)c2ccccc12 [CBK105837] | 107.977 |
| Nc1ncncc1-c1ccc(Cl)cc1 [CBK012407] | 99.9632 |
| NS(=O)(=O)c1ccc(NS(=O)(=O)c2ccc(NC(=O)C3CC3)cc2)cc1 [CBK264958] | 78.7191 |
| CC(/C=C/c1ccc(N(C)C)cc1)=N\NC(=N)SC1CC(=O)N(c2ccc(C(=O)O)cc2)C1=O (stereo not drawn) [CBK262460] | 88.0901 |
| O=C(c1cnccn1)N1C[C@@H]2OCC(=O)N(CC3CC3)[C@@H]2C1 [CBK289681] | 112.204 |
| O=C(CSCc1ccc([N+](=O)[O-])cc1)Nc1ccc2c(c1)OCO2 [CBK264031] | 100.003 |
| O=C(Cc1ccc([N+](=O)[O-])cc1)N/N=C/c1ccc(O)cc1 [CBK262152] | 98.5985 |
| Nc1ncc(-c2ccc3c(c2)OCO3)nc1N1CCC(C(=O)O)CC1 [CBK064074] | 124.023 |
| CC(C(=O)N1CCOCC1)N(c1cc(Cl)ccc1Cl)S(C)(=O)=O (stereo not drawn) [CBK270270] | 120.188 |
| Cc1ccc(-c2nnc(CNC(=O)c3cccc(F)c3F)o2)s1 [CBK284641] | 102.2 |
| CC(NC(=O)CCc1cccnc1)c1nc(-c2ccncc2)cs1 (stereo not drawn) [CBK306243] | 85.7664 |
| Cn1nccc1NS(=O)(=O)c1cccc2cccnc12 [CBK062069] | 97.8631 |
| CCN(Cc1ccccc1)C(=O)Nc1ccc(C)cc1 [CBK155248] | 77.1381 |
| Cc1cc(C)n(CC2(CNC(=O)C(c3ccccc3F)N(C)C)CC2)n1 (stereo not drawn) [CBK306920] | 91.2712 |
| O=C(NCCN1CCCCC1)c1cccc(Oc2ccccc2)c1 [CBK270335] | 52.0034 |
| O=C(c1ccccc1Cl)N1N=C(c2cccnc2)CC1c1ccccc1O (stereo not drawn) [CBK269182] | 129.796 |
| Cc1cc(C(=O)CSc2nnnn2-c2ccc(O)cc2)c(C)n1Cc1ccc(F)cc1 [CBK297081] | 101.257 |

— PMC12040169 (PLOS Biology, 2025)
